The supplement of paper PMC9135407
“And” between values parts separate entries of the source, which are not always exact repeats. Equal entries are not always repeated. Structures can show the parent of a compound that is named as a salt. The whole screen tested about 5,800 compounds, of which about 620 (11%) showed activity.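 The calls were made as follows: active = score above a cut-off or among the top three wells of a plate; in these data no inactive exceeds 0.85.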 This is a selection; strong and weak results do not stand in their true shares.

Tested on: primary human hepatic stellate cells (donor 1)
Assay: scaled lipid accumulation score (0 = DMSO-like, 1 = nortriptyline-like); higher = stronger HSC inactivation (lipid re-accumulation), active = hit call of the paper
Conditions: 48 h
[1] = library stock concentration: 10 mM
[2] = library stock concentration: 3.33 mM
[3] = library stock concentration: 80 uM
[4] = library stock concentration: 400 uM
[5] = library stock concentration: 2 mM
[6] = library stock concentration: 5.2 mM
[7] = library stock concentration: 1 mM

SMILES: CCOC(=O)c1cnc2ccc(-c3cncc(NS(=O)(=O)c4ccccc4)c3)cn12
- scaled lipid accumulation score [1]: active: 0.915

SMILES: COc1ccc(CN2C(=O)C(=O)c3cc(OC(F)(F)F)ccc32)cc1
- scaled lipid accumulation score [1]: inactive: 0.373

SMILES: Cc1nnc(C(=O)NC(C)(C)c2nc(C(=O)NCc3ccc(F)cc3)c(O)c(=O)n2C)o1 [Raltegravir (MK-0518)]
- scaled lipid accumulation score [2]: inactive: 0.018
- scaled lipid accumulation score [1]: inactive: 0.008

SMILES: O=C(NC[C@H]1CN(c2ccc(N3CCOCC3=O)cc2)C(=O)O1)c1ccc(Cl)s1 [Rivaroxaban]
- scaled lipid accumulation score [2]: inactive: ≤ 0
- scaled lipid accumulation score [1]: inactive: ≤ 0

SMILES: CC(C)c1nn(-c2c(Cl)cccc2Cl)c2nc(Cc3ccc(OCCO)cc3)[nH]c(=O)c12
- scaled lipid accumulation score [3]: inactive: 0.074
- scaled lipid accumulation score [4]: inactive: 0.071
- scaled lipid accumulation score [5]: inactive: 0.275
- scaled lipid accumulation score [1]: inactive: 0.136

SMILES: C[C@@H]1C[C@H]2[C@@H]3C[C@H](F)C4=CC(=O)C=C[C@]4(C)[C@@]3(F)[C@@H](O)C[C@]2(C)[C@@]1(O)C(=O)CO [Flumethasone]
- scaled lipid accumulation score: inactive: ≤ 0
- scaled lipid accumulation score [2]: inactive: ≤ 0
- scaled lipid accumulation score (library stock concentration: 4.9 mM): inactive: ≤ 0
- scaled lipid accumulation score [1]: inactive: ≤ -0.001

SMILES: Cc1cc2c(cc1CC(=O)c1sccc1S(=O)(=O)Nc1onc(C)c1Cl)OCO2 [Sitaxentan sodium]
- scaled lipid accumulation score [2]: inactive: ≤ 0
- scaled lipid accumulation score [1]: inactive: ≤ 0

SMILES: COc1cc(N2CCC(N3CCN(C)CC3)CC2)ccc1Nc1ncc(Cl)c(-c2c[nH]c3ccccc23)n1
- scaled lipid accumulation score [3]: inactive: 0.057
- scaled lipid accumulation score [4]: inactive: 0.358

SMILES: O=C(O)Cc1ccc(-c2ccccc2)cc1 [Felbinac]
- scaled lipid accumulation score: inactive: ≤ 0

SMILES: O=C(O)c1cn(-c2ccc(F)cc2)c2cc(N3CCNCC3)c(F)cc2c1=O [Sarafloxacin hydrochloride]
- scaled lipid accumulation score (library stock concentration: 4.7 mM): inactive: 0.013
- scaled lipid accumulation score [1]: inactive: ≤ -0.027

SMILES: O=C(O)c1cn(-c2ccc(F)cc2)c2cc(N3CCNCC3)c(F)cc2c1=O [Sarafloxacin HCl]
- scaled lipid accumulation score [6]: inactive: ≤ 0

SMILES: C[C@@H](NCc1cc(Br)cc2[nH]c(=O)c(=O)[nH]c12)P(=O)(O)O
- scaled lipid accumulation score [1]: inactive: ≤ -0.006

SMILES: COc1cccc(/C=N/N=C/c2cccc(OC)c2)c1
- scaled lipid accumulation score [1]: inactive: ≤ 0

SMILES: COc1ccc(NC(=O)c2cc(OCCCN(C)C)nn2Cc2ccccc2)cc1.Cl [CFM 1571 hydrochloride]
- scaled lipid accumulation score [1]: active: 1.11

SMILES: CC/C=C\C/C=C\C/C=C\C/C=C\C/C=C\CCCC(=O)O [Eicosapentaenoic acid (20:5 n-3)]
- scaled lipid accumulation score [7]: inactive: 0.009

SMILES: CC/C=C\C/C=C\C/C=C\C/C=C\C/C=C\CCCC(=O)O [Eicosapentaenoic Acid]
- scaled lipid accumulation score [7]: inactive: 0.001

SMILES: CC1CCN(c2cc(N3CCN(C)CC3)ccc2NC(=O)c2cc(C#N)c[nH]2)CC1
- scaled lipid accumulation score [1]: active: 1.32

SMILES: CCCCC1CCC(c2nc(-c3ccncc3)no2)CC1 (centres undefined)
- scaled lipid accumulation score [7]: inactive: 0.03
- scaled lipid accumulation score [1]: inactive: ≤ -0.001

SMILES: O=C1/C(=C/c2cccs2)CC/C1=C\c1cccs1
- scaled lipid accumulation score [1]: inactive: ≤ 0

SMILES: O=C1NC(=O)/C(=C\c2cccc(C(F)(F)F)c2)S1 [PIM12 kinase inhibitor V]
- scaled lipid accumulation score [3]: inactive: ≤ -0.001
- scaled lipid accumulation score [4]: inactive: ≤ -0.001
- scaled lipid accumulation score [5]: inactive: ≤ -0.001
- scaled lipid accumulation score [1]: inactive: 0.011

SMILES: NC(=O)N[C@@H](CCC(=O)O)C(=O)O
- scaled lipid accumulation score [1]: inactive: ≤ 0

SMILES: CC(=O)[C@@]12O[C@](C)(c3ccccc3)O[C@@H]1C[C@H]1[C@@H]3CCC4=CC(=O)CC[C@]4(C)[C@H]3CC[C@@]12C
- scaled lipid accumulation score [1]: inactive: ≤ 0

SMILES: COC(=O)[C@H](c1ccccc1Cl)N1CCc2sccc2C1 [clopidogrel]
- scaled lipid accumulation score [1]: inactive: 0.005

SMILES: COC(=O)[C@H](c1ccccc1Cl)N1CCc2sccc2C1 [Clopidogrel sulfate]
- scaled lipid accumulation score (library stock concentration: 4.8 mM): inactive: ≤ 0
- scaled lipid accumulation score (library stock concentration: 6.2 mM): inactive: 0.03
- scaled lipid accumulation score [1]: inactive: ≤ -0.027

SMILES: COC(=O)[C@H](c1ccccc1Cl)N1CCc2sccc2C1 [Clopidogrel]
- scaled lipid accumulation score [2]: inactive: ≤ 0
- scaled lipid accumulation score [1]: inactive: ≤ 0

SMILES: C[C@]12CCC(=O)C=C1CC[C@@H]1[C@@H]2C(=O)C[C@@]2(C)[C@H]1CC[C@]2(O)C(=O)CO [Cortisone]
- scaled lipid accumulation score: inactive: ≤ 0
- scaled lipid accumulation score [1]: inactive: ≤ 0

SMILES: C[C@]12CCC(=O)C=C1CC[C@@H]1[C@@H]2C(=O)C[C@@]2(C)[C@H]1CC[C@]2(O)C(=O)CO
- scaled lipid accumulation score [1]: inactive: 0.061

SMILES: COCCCC/C(=N\OCCN)c1ccc(C(F)(F)F)cc1 [Fluvoxamine maleate]
- scaled lipid accumulation score: inactive: 0.592
- scaled lipid accumulation score [2]: inactive: 0.347
- scaled lipid accumulation score [1]: inactive: 0.81 and inactive: 0.545

SMILES: COCCCC/C(=N\OCCN)c1ccc(C(F)(F)F)cc1 [Fluvoxamine]
- scaled lipid accumulation score [1]: inactive: 0.69

SMILES: CN(C)CCC=C1c2ccccc2Sc2ccc(Cl)cc21 [Chlorprothixene]
- scaled lipid accumulation score [1]: active: 1.03

SMILES: NC(=O)N1CCC(CC(=O)N2CCC([C@H]3c4ncc(Br)cc4CCc4cc(Cl)cc(Br)c43)CC2)CC1 [Lonafarnib]
- scaled lipid accumulation score [2]: inactive: 0.06
- scaled lipid accumulation score [1]: inactive: 0.101

SMILES: O=C1N[C@H](C(=O)O)CS1 [4-Thiazolidinecarboxylic acid, 2-oxo-, (R)- [CAS]]
- scaled lipid accumulation score [1]: inactive: ≤ 0

SMILES: C[C@H](N[C@@H](CCc1ccccc1)C(=O)O)C(=O)N1CCC[C@H]1C(=O)O [Enalaprilat Dihydrate]
- scaled lipid accumulation score [2]: inactive: ≤ 0
- scaled lipid accumulation score [1]: inactive: ≤ 0

SMILES: C[C@H](N[C@@H](CCc1ccccc1)C(=O)O)C(=O)N1CCC[C@H]1C(=O)O [Enalaprilat dihydrate]
- scaled lipid accumulation score [1]: inactive: ≤ 0

SMILES: C[C@H](N[C@@H](CCc1ccccc1)C(=O)O)C(=O)N1CCC[C@H]1C(=O)O
- scaled lipid accumulation score [1]: inactive: ≤ 0

SMILES: C[C@H](N[C@@H](CCc1ccccc1)C(=O)O)C(=O)N1CCC[C@H]1C(=O)O [Enalaprilat]
- scaled lipid accumulation score (library stock concentration: 5.7 mM): inactive: ≤ -0.006

SMILES: CN(C)[C@@H]1C(O)=C(C(N)=O)C(=O)[C@@]2(O)C(O)=C3C(=O)c4c(O)cccc4[C@@](C)(O)[C@H]3C[C@@H]12
- scaled lipid accumulation score [1]: inactive: ≤ 0

SMILES: CN(C)[C@@H]1C(O)=C(C(N)=O)C(=O)[C@@]2(O)C(O)=C3C(=O)c4c(O)cccc4[C@@](C)(O)[C@H]3C[C@@H]12 [Tetracycline]
- scaled lipid accumulation score (library stock concentration: 4.5 mM): inactive: ≤ 0

SMILES: CN(C)[C@@H]1C(O)=C(C(N)=O)C(=O)[C@@]2(O)C(O)=C3C(=O)c4c(O)cccc4[C@@](C)(O)[C@H]3C[C@@H]12 [Tetracycline hydrochloride]
- scaled lipid accumulation score: inactive: ≤ 0
- scaled lipid accumulation score [1]: inactive: ≤ 0

SMILES: CN1CCN(S(=O)(=O)c2ccc(-c3cnc(N)c(C(=O)Nc4cccnc4)n3)cc2)CC1
- scaled lipid accumulation score [2]: inactive: 0.821

SMILES: COc1ccc(-c2coc3cc(O)ccc3c2=O)cc1 [Formononetin]
- scaled lipid accumulation score [2]: inactive: ≤ 0
- scaled lipid accumulation score [1]: inactive: ≤ 0 and inactive: ≤ -0.027

SMILES: CNc1nc(-c2ccc3c(N)n[nH]c3c2)cc(N2C[C@@H](C(=O)NC3CCCCC3)CC[C@H]2C)n1
- scaled lipid accumulation score [3]: inactive: ≤ -0.016
- scaled lipid accumulation score [4]: inactive: ≤ -0.016
- scaled lipid accumulation score [5]: inactive: ≤ -0.016
- scaled lipid accumulation score [2]: inactive: ≤ 0
- scaled lipid accumulation score [1]: inactive: 0.741 and inactive: 0.773

SMILES: Oc1c(Br)cc(Br)c2cccnc12 [Broxyquinoline]
- scaled lipid accumulation score [2]: inactive: ≤ 0
- scaled lipid accumulation score [1]: inactive: ≤ -0.001 and inactive: ≤ 0

SMILES: Nc1ccc2ncnc(NCCc3ccc(Oc4ccccc4)cc3)c2c1
- scaled lipid accumulation score [3]: inactive: ≤ -0.001
- scaled lipid accumulation score [4]: inactive: ≤ -0.001
- scaled lipid accumulation score [5]: inactive: ≤ -0.001
- scaled lipid accumulation score [2]: inactive: ≤ 0
- scaled lipid accumulation score [1]: inactive: ≤ -0.001 and inactive: 0.642

SMILES: CCC(=O)O[C@H]1CC[C@H]2[C@@H]3CCc4cc(O)ccc4[C@H]3CC[C@]12C [Estradiol propionate]
- scaled lipid accumulation score (library stock concentration: 6.1 mM): inactive: 0.254
- scaled lipid accumulation score [1]: inactive: 0.443

SMILES: COc1cc2c(cc1OC)-c1cc3nc4ccccc4nc3n1C(C)(C)C2
- scaled lipid accumulation score [1]: active: 0.923

SMILES: CC(C)C[C@H](NC(=O)[C@H](Cc1ccccc1)NC(=O)c1cnccn1)B(O)O [Bortezomib]
- scaled lipid accumulation score [6]: inactive: 0.806

SMILES: CC(C)C[C@H](NC(=O)[C@H](Cc1ccccc1)NC(=O)c1cnccn1)B(O)O [Bortezomib (PS-341)]
- scaled lipid accumulation score [2]: inactive: 0.484
- scaled lipid accumulation score [1]: inactive: 0.649

SMILES: Cc1ccc2c(c1)C(=O)C1(O)CCN(c3ccccc3)C1=N2 (single isomer, unassigned; (-)) [(-)-Blebbistatin]
- scaled lipid accumulation score [3]: inactive: ≤ -0.001
- scaled lipid accumulation score [4]: inactive: ≤ -0.001
- scaled lipid accumulation score [7]: inactive: ≤ 0
- scaled lipid accumulation score [5]: inactive: ≤ -0.001
- scaled lipid accumulation score [2]: inactive: ≤ -0.009
- scaled lipid accumulation score [1]: inactive: 0.264

SMILES: O=C(OCCN1CCOCC1)C1(c2ccccc2)CCCCC1
- scaled lipid accumulation score [1]: inactive: ≤ -0.055

SMILES: O=C(OCCN1CCOCC1)C1(c2ccccc2)CCCCC1 [PRE-084 hydrochloride]
- scaled lipid accumulation score [1]: inactive: 0.001

SMILES: COc1ccc(CC(C)NCC(O)c2ccc(O)c(NC=O)c2)cc1 (centres undefined) [Formoterol hemifumarate]
- scaled lipid accumulation score [1]: inactive: ≤ -0.006

SMILES: COc1ccc(CC(C)NCC(O)c2ccc(O)c(NC=O)c2)cc1 (centres undefined) [Formoterol Hemifumarate]
- scaled lipid accumulation score [2]: inactive: ≤ 0
- scaled lipid accumulation score [1]: inactive: 0.066

SMILES: COc1ccc(CC(C)NCC(O)c2ccc(O)c(NC=O)c2)cc1 (centres undefined) [Formoterol]
- scaled lipid accumulation score [1]: inactive: 0.227

SMILES: COc1ccc(CC(C)NCC(O)c2ccc(O)c(NC=O)c2)cc1 (centres undefined)
- scaled lipid accumulation score [1]: inactive: ≤ 0

SMILES: O=C1C(c2c(O)[nH]c3ccccc23)=Nc2ccccc21
- scaled lipid accumulation score [1]: inactive: 0.454

SMILES: O=C1C(c2c(O)[nH]c3ccccc23)=Nc2ccccc21 [Indirubin]
- scaled lipid accumulation score [2]: inactive: ≤ 0
- scaled lipid accumulation score [1]: inactive: 0.058

SMILES: CS(=O)(=O)c1ccc(C(=O)Nc2ccc(Cl)c(-c3ccccn3)c2)c(Cl)c1 [Vismodegib (GDC-0449)]
- scaled lipid accumulation score [2]: inactive: 0.002
- scaled lipid accumulation score [1]: inactive: ≤ 0

SMILES: O=C(COc1ccc(C(=O)c2ccccc2)cc1)NC1CCN(Cc2ccccc2)CC1 [AdipoRon]
- scaled lipid accumulation score [2]: inactive: 0.044
- scaled lipid accumulation score [1]: inactive: 0.271
